Measurements published in PubChem BioAssay AID2147 (National Center for Advancing Translational Sciences (NCATS), 2009).
Among all 230,000 compounds or so, about 3,600 (1.6%) were called active. A call without a number means that no potency is given here. The inconclusive results got no clear call from the source; some entries with a clear call stand among them for comparison. Calls follow the shape of the dose curve; as a rule, active = well fitted inhibition curve with a large enough effect (not every such curve was filed as active); inconclusive = small, poorly fitted or top-dose-only effect, or another doubt; inactive = no such curve, though single readings can be large or run the other way. A potency beside an inconclusive call is a rough fit, not a confirmed value.

target: Lysine-specific demethylase 4E (Homo sapiens) (UniProt B2RXH2); assay: qHTS Assay for Inhibitors of Human Jumonji Domain Containing 2E (JMJD2E); conditions: JMJD2E catalytic domain, FDH-coupled NADH fluorescence (FDH is formaldehyde dehydrogenase); series mostly up to 57.1 µM
Also: nearly all actives have a fitted effect of over 50% in size.
Potency is read from the fitted curve at half-maximal effect; tags tell the direction and shape of the fitted curve.

Chain of UniProt B2RXH2 (B2RXH2 whole entry, looked up, the tested form may be a part): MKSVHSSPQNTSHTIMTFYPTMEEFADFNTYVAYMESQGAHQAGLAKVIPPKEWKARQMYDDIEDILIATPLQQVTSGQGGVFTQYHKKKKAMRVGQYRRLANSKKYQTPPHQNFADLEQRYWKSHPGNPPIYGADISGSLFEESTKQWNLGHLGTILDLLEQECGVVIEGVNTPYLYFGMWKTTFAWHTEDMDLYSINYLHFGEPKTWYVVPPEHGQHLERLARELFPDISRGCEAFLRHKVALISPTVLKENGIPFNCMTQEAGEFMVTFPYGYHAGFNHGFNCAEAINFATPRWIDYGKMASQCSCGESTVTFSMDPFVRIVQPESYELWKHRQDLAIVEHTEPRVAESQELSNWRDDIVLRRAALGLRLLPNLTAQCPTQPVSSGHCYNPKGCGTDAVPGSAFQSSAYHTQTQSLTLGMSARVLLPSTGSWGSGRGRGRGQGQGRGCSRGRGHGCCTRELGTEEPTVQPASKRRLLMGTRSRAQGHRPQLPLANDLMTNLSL

| Compound | Potency |
| --- | --- |
| N#Cc1nc(-c2ccco2)oc1N1CCN(c2ccccc2)CC1 | inconclusive: 39.8 µM [inhibitor, single point] |
| CCn1c(=O)c(C(=O)NCCNCCO)c(O)c2ccccc21 | inconclusive: 39.8 µM [inhibitor, single point] |
| COCCn1c(-c2ccsc2)nc2c1c(=O)[nH]c(=O)n2CC(C)C | inconclusive: 25.1 µM [inhibitor, partial curve] |
| COc1ccc2[nH]c(=O)c(CN(C)C(=O)COc3ccccc3)cc2c1 | inconclusive: 31.6 µM [inhibitor, partial curve] |
| N#CC1=C(N)OC2=C(CCc3ccccc32)C1c1ccccc1Cl (centres undefined) | inconclusive: 20 µM [inhibitor, partial curve] |
| COC(=O)CC1=C(C(=O)OC)C(c2cccc(OCC(N)=O)c2)C(C#N)=C(N)O1 (centres undefined) | inconclusive: 39.8 µM [inhibitor, single point] |
| CCc1ccc(CNc2ccc(N3CCN(C(C)=O)CC3)cc2)cc1 | inconclusive: 35.5 µM [inhibitor, single point] |
| COc1cc(OC)c(NS(=O)(=O)c2cc(C(=O)OCC(=O)NCC3CCCO3)ccc2OC)cc1Cl (centres undefined) | inactive |
| O=C(O)C1=C[C@H](c2ccc(F)cc2)C[C@H](OCCCCO)O1 | inconclusive: 39.8 µM [inhibitor, single point] |
| Cc1ccc(C)c(-n2c(Cc3cc(=O)[nH]c(=O)[nH]3)nnc2SC(C)C)c1 | inactive |
| COc1ccc(O)c(/C=N/NC(=O)c2cc(=O)[nH]c3ccccc23)c1 | active: 7.08 µM |
| Cc1ccccc1-n1c(-c2ccoc2C)n[nH]c1=S | inactive |
| COc1ccc(CC2(C)OC(c3ccc(Cl)cc3)=NN2C(C)=O)cc1 (centres undefined) | inconclusive: 28.2 µM [inhibitor, partial curve] |
| CCCn1c(O)c(CN2CCCCC2)c(C)c(C#N)c1=O | inconclusive: 28.2 µM [inhibitor, single point] |
| CCc1ccc(Nc2ccc(S(=O)(=O)N3CCOCC3)cc2[N+](=O)[O-])cc1 | inactive |
| CC[C@@H]1CC=C[C@H]2[C@H]1C(=O)N(Cc1ccccc1)[C@H]2c1ccc2ccccc2c1 | inactive |
| N#Cc1c(-c2ccccc2)nc(-c2ccccc2)[nH]c1=O | inactive |
| CCCOc1ccc2oc(=O)c3c(c2c1)CCCN3C(=O)CN1CCCC(C(=O)OCC)C1 (centres undefined) | inconclusive: 39.8 µM [inhibitor, single point] |
| O=C(N/N=C/c1cccc2cccnc12)c1ccccc1O | inconclusive: 28.2 µM [inhibitor, single point] |
| CCN1C(=O)c2cccc3c(N)ccc1c23 | inconclusive: 22.4 µM [inhibitor, partial curve] |
| CNC(=S)/N=C/NOCc1ccc(Cl)cc1Cl | inactive |
| O=C1CC(c2ccccc2)CC(O)=C1C=NCCN1CCNCC1 (centres undefined) | inactive |
| c1ccc2c(Nc3nc(-c4ccncc4)nc4ccccc34)cccc2c1 | inconclusive: 35.5 µM [inhibitor, single point] |
| O=C(c1ccc(=O)oc1)N1CCN(C(c2ccccc2)c2ccccc2)CC1 | inconclusive: 31.6 µM [inhibitor, partial curve] |
| CC1(C)Cc2c(sc(NC(=S)NC(=O)c3ccccc3)c2C(=O)O)CO1 | inactive |
| Cc1ccc(NC(=O)COC(=O)C(NS(=O)(=O)c2ccc(Cl)cc2)C(C)O)c(Br)c1 (centres undefined) | inactive |
| FC(F)(F)c1cnc(NNC(=S)Nc2ccc(Cl)cc2)c(Cl)c1 | inconclusive: 39.8 µM [inhibitor, single point] |

| Compound | Potency |
| --- | --- |
| Cc1ccc2cc(C(c3nnnn3CC3CCCO3)N3CCc4ccccc4C3)c(=O)[nH]c2c1 (centres undefined) | inconclusive: 39.8 µM [inhibitor, single point] |
| O=S(=O)(Nc1ccc(N=Nc2ccccc2)cc1)c1ccccc1 | inactive |
| CC/C(=N\NC(=O)CCC(=O)NCc1ccccc1)c1ccc(O)cc1 | inactive |
| O=C(C[n+]1cn(C(F)F)c2ccccc21)c1ccc(OC(F)F)cc1 | inactive |
| CCC(C(=O)NCc1ccco1)n1nc(-c2ccc(OC)cc2)ccc1=O (centres undefined) | inconclusive: 35.5 µM [inhibitor, single point] |
| COc1ccc(C[C@H]2CN3C(=NC[C@H]3Cc3ccccc3)N2CCNC(=O)CCC2CCCCC2)cc1 | inactive |
| O=C(O)c1cc(N2C(=O)C3C4C=CC(C4)C3C2=O)ccc1N1CCOCC1 (centres undefined) | inactive |
| COc1cc(O)oc1C=Nc1ccccc1 | inconclusive: 39.8 µM [inhibitor, single point] |
| CC(C)NC(=O)/C(C#N)=C\c1ccc(N(C)C)c(Br)c1 | inconclusive: 31.6 µM [inhibitor, single point] |
| CC(=O)COc1nc2c(c(-c3ccco3)c1C#N)CCc1ccccc1-2 | inconclusive: 25.1 µM [inhibitor, partial curve] |
| CCOC(=O)[C@H](CCc1ccccc1)N[C@@H](C)C(=O)N1[C@H](C(=O)O)C[C@H]2CCC[C@@H]21 | inactive |
| O=C(NNC(=O)c1ccccc1[N+](=O)[O-])c1ccccn1 | inactive |
| COc1cc(/C=C(\C#N)C(=O)NCC2CCCO2)ccc1OCC(=O)O (centres undefined) | inconclusive: 39.8 µM [inhibitor, single point] |
| Cc1ccc(S(=O)(=O)CC(=O)N2CCCC2)cc1 | inactive |
| C#CCN1C(=O)C(O)(CC(=O)/C=C/C=C/c2ccccc2)c2ccccc21 (centres undefined) | inactive |
| COc1ccc(C(=O)COc2ccc3ccc(=O)oc3c2)cc1 | inconclusive: 39.8 µM [inhibitor, single point] |
| O=C(O)c1csc(-n2nc(-c3ccccc3)cc2C(F)(F)F)n1 | inconclusive: 25.1 µM [inhibitor, partial curve] |
| COC(=O)c1ccccc1NC(=O)CNC(=O)c1ccco1 | inconclusive: 39.8 µM [inhibitor, single point] |
| C=CCSc1nc(-c2ccc(OC)cc2)c(C#N)c(=O)n1CC=C | inconclusive: 31.6 µM [inhibitor, single point] |
| COC(=O)C1=NNC2C(=O)N(C3CCCCC3)C(=O)C12 (centres undefined) | inactive |
| Cc1ccc2c(c1)[nH]c1c(=O)n(Cc3ccccn3)cnc12 | inconclusive: 28.2 µM [inhibitor, single point] |
| CC(C)c1ccc(-c2cc(C(=O)N3N=C(C(F)F)CC3(O)C(F)F)c3ccccc3n2)cc1 (centres undefined) | inconclusive: 25.1 µM [inhibitor, single point] |
| CCOC(=O)c1c2ccc(OCC(=O)N/N=C/c3ccccc3C(F)(F)F)cc2n2ccccc12 | inconclusive: 3.16 µM [inhibitor, full curve] |
| CCC(=O)Nc1c(S(=O)(=O)c2ccccc2)c2nc3ccccc3nc2n1Cc1ccccc1 | inconclusive: 28.2 µM [inhibitor, partial curve] |
| Cc1ccc(CNC(=O)C2CCC(=O)N2CCc2ccccc2)cc1 (centres undefined) | inactive |
| CC(C)CC(=O)Nc1nc(=S)ss1 | inactive |
| CC(=O)c1cn(C)c(=O)[nH]c1=O | inactive |

| Compound | Potency |
| --- | --- |
| N#Cc1c(NC2CCCCC2)nc(-c2ccco2)c2c1CCCC2 | inconclusive: 22.4 µM [inhibitor, partial curve] |
| CC1CCCCN1S(=O)(=O)c1ccc(S(=O)(=O)N(Cc2ccccc2)Cc2ccco2)cc1 (centres undefined) | inactive |
| COc1cc(C(=O)Nc2ccc(S(=O)(=O)N3CCCCC3C)cc2)cc(OC)c1OC (centres undefined) | inactive |
| COc1ccc(-c2nnc3sc(CN4C(=O)c5ccccc5C4=O)nn23)cc1 | inactive |
| O=C(Cc1cccs1)N/N=C\c1ccc([N+](=O)[O-])s1 | inactive |
| COc1ccc(CNC(=S)NC(C)CCc2ccccc2)cc1 (centres undefined) | inactive |
| COc1cccc(-c2nnc(SCC(=O)Nc3ccc4c(c3)OCCO4)n2Cc2ccco2)c1 | inactive |
| O=C(N/N=C/c1cccnc1)C(O)c1ccccc1 (centres undefined) | inactive |
| c1ccc(N2CCN(c3cnc4ccccc4n3)CC2)cc1 | inactive |
| Cn1c(SCC(=O)c2ccccc2)nnc1C1CC1 | inactive |
| Cc1cc(N)n2nc(C)c(-c3ccccc3)c2n1 | inconclusive: 28.2 µM [inhibitor, single point] |
| COc1cccc(CNC(=O)CCC2CCCN(C(=O)c3cc(C)on3)C2)c1 (centres undefined) | inactive |
| COc1ccc(-c2nc(SC(CC(=O)NCCO)c3cccs3)n[nH]2)cc1 (centres undefined) | inactive |
| Cc1nc(Nc2nc(CSc3nc4ccccc4[nH]3)cc(=O)[nH]2)nc2ccccc12 | inactive |
| CC(=O)c1ccc(NC(=O)CC2Nc3cccc4cccc(c34)NC2=O)cc1 (centres undefined) | inconclusive: 35.5 µM [inhibitor, single point] |
| CC(c1ccccc1)N1C(=O)/C(=C/c2ccncc2)SC1=S (centres undefined) | inactive |
| CN(Cc1ccccc1)C(=O)c1nc2ccccn2c1CN1CCC(N2CCOCC2)CC1 | inactive |
| Cc1cc(NCCCO)n2c(nc3ccccc32)c1C#N | inconclusive: 28.2 µM [inhibitor, partial curve] |
| Nc1ccc2c(c1)OCCOCCOCCOCCOCCO2 | inconclusive: 35.5 µM [inhibitor, single point] |
| O=C(COc1cccnc1[N+](=O)[O-])c1c[nH]c2ccccc12 | inactive |
| COc1ccc(OC)c(/C=N/NC(=O)c2cc3c(OC)cc(OC)cc3[nH]2)c1 | inconclusive: 25.1 µM [inhibitor, partial curve] |
| Cc1ccc(S(=O)(=O)n2ccc3cccnc32)cc1 | inactive |
| COC(=O)[C@@]1(Cc2ccc(OC)cc2)[C@H]2c3cc(C(=O)N4CCCC4)n(CCc4ccccn4)c3C[C@H]2CN1C(=O)c1ccccc1 | inactive |
| CCn1c(CSc2nc(C)cc(C)n2)nnc1SCC(=O)Nc1cccc2ccccc12 | inactive |
| COc1ccccc1N1CCN(C(=O)c2cc3c(-c4ccc(Cl)cc4)nn(C)c3s2)CC1 | inconclusive: 39.8 µM [inhibitor, single point] |
